This is one part of the list. Single values of this set are uncertain.
System: U2OS
Assay: Cell Painting induction (percent of morphological features significantly changed vs DMSO); higher = stronger morphological change
Conditions: 10 µM; 20 h; run: confirmation repeat
Description: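 Cell Painting assay in U2OS cells: compounds at 10 µM for 20 h, six dyes, 579 robust CellProfiler features as Z-scores vs DMSO median (MAD). Induction is the % of significantly changed features (active if ≥5%); relative cell count is in % of DMSO. The primary run holds DCM compounds preselected for induction ≥10%; the confirmation repeat defines active compounds (370 of 549). Replicate agreement is low, attributed to precipitation.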
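Also: stains mark DNA, RNA and nucleoli, ER, actin, Golgi, plasma membrane and mitochondria, read by high-content imaging, with DMSO controls at matching solvent concentration.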

| Structure (SMILES) | Cell Painting induction |
| --- | --- |
| CCCCN(CC)S(=O)(=O)c1ccc(F)c(C(=O)Nc2cccc(C)c2C)c1 | active: 9.3% |
| CCN(CC)CCNC(=O)c1ccc(Sc2ccc(C)cc2)c(NC(C)=O)c1 | active: 8.8% |
| CCn1cc(C(=O)N2CCc3ccccc32)c(=O)c2cc(S(=O)(=O)N3CC(C)CC(C)C3)ccc21 (centres undefined) | active: 19% |
| COc1cc(C(=O)OCCNC(=O)c2ccccc2)cc(OC)c1OC | inactive: 3.3% |
| CCOc1ccc(S(=O)(=O)NCc2cccnc2)cc1NC(=O)c1ccccc1 | active: 27.5% |
| COC(=O)c1cc(=O)n(Cc2cccs2)/c(=N/Cc2cccs2)s1 | inactive: 0.9% |
| CC(=O)Nc1ccc(NC(=O)C2CCC(CNS(=O)(=O)c3cccc4nsnc34)CC2)cc1 (centres undefined) | active: 11.4% |
| CC(C)c1ccc(NC(=O)c2cc(S(=O)(=O)N3CCN(c4ccccc4)CC3)ccc2F)cc1 | active: 13.6% |
| COc1ccc(-n2nnc3c(=O)n(Cc4ccccc4C)cnc32)cc1 | inactive: 0% |
| COC(=O)c1ccc(C(=O)OC)c(NC(=S)N2CCC(N3CCCCC3)CC2)c1 | active: 8.3% |
| COc1nnc(-c2ccc(N3CCCCC3)c(NC(=O)COc3ccccc3)c2)c2ccccc12 | inactive: 1.6% |
| CCOc1ccc(S(=O)(=O)N2CCN(CC)CC2)cc1NC(=O)c1ccccc1F | active: 19.9% |
| Cc1nc2sccn2c(=O)c1S(=O)(=O)NCC1CCN(Cc2ccc(Cl)cc2)CC1 | active: 44.2% |
| Cc1ccc2oc(=O)c3cc(C(=O)Nc4cc(-c5cccc(F)c5)no4)sc3c2c1 | inactive: 0.2% |
| CCO/C(O)=C1\C(C)=Nc2nc3ccccc3n2C1c1cc(OC)c(OC)cc1OC (centres undefined) | active: 5% |
| CCOC(=O)c1ccc(NC(=O)C2CCN(S(=O)(=O)c3ccccc3)CC2)cc1 | active: 25.2% |
| Cc1ccc(-n2nc(-c3ccc(F)cc3)c3cnc4cc5c(cc4c32)OCCO5)cc1 | inactive: 0.3% |
| COC(=O)C1=CN(CCCN2CCCC2=O)C=C(C(=O)OC)C1c1cccs1 | inactive: 0% |
| COc1cccc(C(=O)CC(=O)C(=O)Nc2cc(Cl)c(OC)cc2OC)c1 | inactive: 0% |

| Structure (SMILES) | Cell Painting induction |
| --- | --- |
| CCN(CCCNC(=O)Cn1ncc2c3ccccc3nc-2c1O)Cc1ccccc1 | inactive: 1.4% |
| Cc1ccc2nc(Nc3nc(C)c(CCC(C)C)c(O)n3)nc(C)c2c1 | inactive: 3.8% |
| O=C1CCCC2=C1C1(CCCC1)NC(Nc1nc3ccccc3o1)=N2 | inactive: 0% |
| COc1ccc(NC(=S)N(CCCN2CCOCC2)Cc2cn(C)c3ccccc23)cc1OC | active: 6.4% |
| COc1cccc(-c2nn(-c3ccccc3)c3c2cnc2ccc(F)cc23)c1 | inactive: 0.5% |
| CC(C)N(CCNC(=O)c1ccc(CS(=O)(=O)c2c(Cl)cccc2Cl)o1)Cc1ccccc1 | active: 23.3% |
| CCOc1ccc(NC(=S)NCCCN2CCN(C3CCCCC3)CC2)cc1 | active: 19.5% |
| COc1ccc(N2CCN(S(=O)(=O)CCNC(=O)C34CC5CC(CC(C5)C3)C4)CC2)cc1 | active: 14.2% |
| COc1ccc(-c2c(C)nn3c(N4CCN(c5cccc(Cl)c5)CC4)cc(C)nc23)cc1OC | active: 16.6% |
| CC(C)c1ccc(NC(=O)C2CCN(S(=O)(=O)c3ccc4c(c3)NC(=O)CO4)CC2)cc1 | active: 20.2% |
| Cc1ccc(Cn2cccc2/C=N/NC(=S)Nc2ccc(C)cc2)cc1 | active: 38% |
| CCc1ccc(NC(=O)NCCN2CCN(c3ccc(OC)cc3)CC2)cc1 | active: 37.3% |
| CCOC(=O)c1sc(NC(=O)CCN2C(=O)c3ccccc3C2=O)c(C(=O)OCC)c1C | inactive: 1.6% |
| CCCN1CCN(CCCNC(=O)c2ccccc2NC(=O)C2=C(C)OCCS2)CC1 | inactive: 0.9% |
| CN1CCN(C(=O)CCN2C(=O)/C(=C/c3ccc(Cl)cc3)SC2=S)CC1 | inactive: 2.2% |
| CCn1c(=O)n(CC)c2cc(N3CCCC3)c(NC(=O)c3ccccc3F)cc21 | active: 11.7% |
| O=C(CSc1nc2cc3c(cc2c(=O)n1CCC(=O)N1CCN(c2ccccc2)CC1)OCO3)c1ccc(Cl)cc1 | inactive: 0.3% |
| CCOc1ccc(NC(=S)NCCN2CCN(Cc3ccccc3)CC2)cc1 | active: 24% |

Same assay, conditions: 10 µM; 20 h; run: primary screen (compounds selected for induction >=10%)

| Structure (SMILES) | Cell Painting induction |
| --- | --- |
| CCCCN(CC)S(=O)(=O)c1ccc(F)c(C(=O)Nc2cccc(C)c2C)c1 | 19% |
| CCN(CC)CCNC(=O)c1ccc(Sc2ccc(C)cc2)c(NC(C)=O)c1 | 13.8% |
| CCn1cc(C(=O)N2CCc3ccccc32)c(=O)c2cc(S(=O)(=O)N3CC(C)CC(C)C3)ccc21 (centres undefined) | 19.3% |
| COc1cc(C(=O)OCCNC(=O)c2ccccc2)cc(OC)c1OC | 16.2% |
| CCOc1ccc(S(=O)(=O)NCc2cccnc2)cc1NC(=O)c1ccccc1 | 34.5% |
| COC(=O)c1cc(=O)n(Cc2cccs2)/c(=N/Cc2cccs2)s1 | 25.4% |
| CC(=O)Nc1ccc(NC(=O)C2CCC(CNS(=O)(=O)c3cccc4nsnc34)CC2)cc1 (centres undefined) | 13.8% |
| CC(C)c1ccc(NC(=O)c2cc(S(=O)(=O)N3CCN(c4ccccc4)CC3)ccc2F)cc1 | 16.4% |
| COc1ccc(-n2nnc3c(=O)n(Cc4ccccc4C)cnc32)cc1 | 11.6% |
| COC(=O)c1ccc(C(=O)OC)c(NC(=S)N2CCC(N3CCCCC3)CC2)c1 | 17.6% |
| COc1nnc(-c2ccc(N3CCCCC3)c(NC(=O)COc3ccccc3)c2)c2ccccc12 | 17.8% |
| CCOc1ccc(S(=O)(=O)N2CCN(CC)CC2)cc1NC(=O)c1ccccc1F | 14.7% |
| Cc1nc2sccn2c(=O)c1S(=O)(=O)NCC1CCN(Cc2ccc(Cl)cc2)CC1 | 39.7% |
| Cc1ccc2oc(=O)c3cc(C(=O)Nc4cc(-c5cccc(F)c5)no4)sc3c2c1 | 20.6% |
| CCO/C(O)=C1\C(C)=Nc2nc3ccccc3n2C1c1cc(OC)c(OC)cc1OC (centres undefined) | 10.4% |
| CCOC(=O)c1ccc(NC(=O)C2CCN(S(=O)(=O)c3ccccc3)CC2)cc1 | 59.8% |
| Cc1ccc(-n2nc(-c3ccc(F)cc3)c3cnc4cc5c(cc4c32)OCCO5)cc1 | 59.4% |
| COC(=O)C1=CN(CCCN2CCCC2=O)C=C(C(=O)OC)C1c1cccs1 | 12.6% |
| COc1cccc(C(=O)CC(=O)C(=O)Nc2cc(Cl)c(OC)cc2OC)c1 | 18.5% |

| Structure (SMILES) | Cell Painting induction |
| --- | --- |
| CCN(CCCNC(=O)Cn1ncc2c3ccccc3nc-2c1O)Cc1ccccc1 | 11.1% |
| Cc1ccc2nc(Nc3nc(C)c(CCC(C)C)c(O)n3)nc(C)c2c1 | 49.7% |
| O=C1CCCC2=C1C1(CCCC1)NC(Nc1nc3ccccc3o1)=N2 | 21.2% |
| COc1ccc(NC(=S)N(CCCN2CCOCC2)Cc2cn(C)c3ccccc23)cc1OC | 16.1% |
| COc1cccc(-c2nn(-c3ccccc3)c3c2cnc2ccc(F)cc23)c1 | 29.4% |
| CC(C)N(CCNC(=O)c1ccc(CS(=O)(=O)c2c(Cl)cccc2Cl)o1)Cc1ccccc1 | 28.7% |
| CCOc1ccc(NC(=S)NCCCN2CCN(C3CCCCC3)CC2)cc1 | 34.5% |
| COc1ccc(N2CCN(S(=O)(=O)CCNC(=O)C34CC5CC(CC(C5)C3)C4)CC2)cc1 | 17.3% |
| COc1ccc(-c2c(C)nn3c(N4CCN(c5cccc(Cl)c5)CC4)cc(C)nc23)cc1OC | 28% |
| CC(C)c1ccc(NC(=O)C2CCN(S(=O)(=O)c3ccc4c(c3)NC(=O)CO4)CC2)cc1 | 20.6% |
| Cc1ccc(Cn2cccc2/C=N/NC(=S)Nc2ccc(C)cc2)cc1 | 40.6% |
| CCc1ccc(NC(=O)NCCN2CCN(c3ccc(OC)cc3)CC2)cc1 | 49.6% |
| CCOC(=O)c1sc(NC(=O)CCN2C(=O)c3ccccc3C2=O)c(C(=O)OCC)c1C | 16.9% |
| CCCN1CCN(CCCNC(=O)c2ccccc2NC(=O)C2=C(C)OCCS2)CC1 | 15.4% |
| CN1CCN(C(=O)CCN2C(=O)/C(=C/c3ccc(Cl)cc3)SC2=S)CC1 | 27.3% |
| CCn1c(=O)n(CC)c2cc(N3CCCC3)c(NC(=O)c3ccccc3F)cc21 | 11.9% |
| O=C(CSc1nc2cc3c(cc2c(=O)n1CCC(=O)N1CCN(c2ccccc2)CC1)OCO3)c1ccc(Cl)cc1 | 22.1% |
| CCOc1ccc(NC(=S)NCCN2CCN(Cc3ccccc3)CC2)cc1 | 38.9% |
